# About 64,000 (15%) of roughly 420,000 compounds were called active. The shares of active, inactive and inconclusive entries below differ from those in the screen. The call rests on the fitted dose curve; in most records, active means well fitted inhibition curve with a large enough effect; inconclusive means small, poorly fitted or top-dose-only effect; inactive means flat fitted curve, though single readings scatter. Potencies of inconclusive entries are left out as doubtful fits.
# Assay: qHTS for Inhibitors of human tyrosyl-DNA phosphodiesterase 1 (TDP1): qHTS in cells in absence of CPT; further: nearly all actives have a fitted effect of over 55% in size
# Details: DT40 Tdp1-/- hTDP1 cells, no CPT, ATP luminescence, 48 h; activity change, negative = growth inhibition: at 46.2 µM (top of the series) unless noted
# Summary of the method: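 Growth of hTDP1-complemented DT40 Tdp1-knockout cells is measured by ATP luminescence after at least 48 hr compound exposure at 37 °C, with DMSO substituting for the 20 nM CPT used in the parallel screen.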
# On the % scale 0 is the no-effect control and ±100 the full control effect; potency means the concentration at half of the fitted maximal effect; tags describe the fitted curve by direction and shape.
SMILES,Potency,"activity change, negative = growth inhibition"
COc1ccccc1-c1c(-c2ccc(OCC(=O)NN)cc2O)n[nH]c1C(F)(F)F,active: 13 µM,
CCOC(=O)c1c(NC(=O)COc2ccc(F)cc2)sc2c1CCC(C)C2 (stereo not drawn),"inconclusive [inhibitor, partial curve]",
CC1CCN(Cc2c(C#N)c3ccccc3n2C)CC1,"inconclusive [inhibitor, partial curve, poor fit]",
COc1ccc(Nc2ncnc3sc(-c4ccccc4)cc23)cc1OC,"inconclusive [inhibitor, single point]",
S=C(NCc1cccs1)Nc1cc(Cl)cc(Cl)c1,"inconclusive [inhibitor, single point]",
O=C(Cc1ccc(S(=O)(=O)N2CCCC2)s1)NC1CCCCCC1,"inconclusive [inhibitor, single point]",
Cc1oc2c(c(C)cc3oc(=O)c(CC(=O)NCCCN4CCCC4=O)c(C)c32)c1C,"inconclusive [inhibitor, single point]",
C/C(=N\NC(=O)COc1ccccc1-c1ccccc1)c1ccc(O)cc1O,"inconclusive [inhibitor, single point]",
CCOC(=O)c1[nH]cnc1C(=O)Nc1ccc(F)cc1,inactive,
O=C1N/C(=N/N=C/c2ccc(F)cc2)SC1c1ccccc1 (stereo not drawn),"inconclusive [inhibitor, partial curve, poor fit]",
CC(C)(C)C(=O)Nc1cccc(-c2nc3ccccc3[nH]2)c1,"inconclusive [inhibitor, partial curve]",
CCCCN(C)CCNC(=O)c1nn(-c2ccc(OC)cc2)c(=O)c2c1c1ccccc1n2C,active: 18.4 µM,
N#C/C(=C\c1ccc(-c2cc(Cl)ccc2Cl)o1)C(=O)Nc1ccccc1C(=O)O,"inconclusive [inhibitor, single point]",
O=C(CSc1nc2ccccc2n1Cc1ccccc1Cl)NCc1ccccc1,active: 23.1 µM,
COC(=O)N1CCN(c2ccc(Cl)c(Cl)c2)CC1,"inconclusive [inhibitor, partial curve]",
COc1ccccc1CC(=O)N1CCN(c2cccc(C(F)(F)F)c2)CC1,active: 13 µM,
Cc1cnc(NC(=O)c2c(-c3ccccc3)noc2C)s1,,inactive: 4.24%
Cc1cc(=O)[nH]c(SCC(=O)NCc2ccco2)n1,,inactive: -12%
CCOc1ccc(-c2c(C(=O)N/N=C/c3c[nH]c4ccccc34)nnn2-c2nonc2N)cc1,active: 16.4 µM,
NC(N)=NCCCC(NC(=O)c1ccccc1)C(=O)Nc1ccc2ccccc2c1 (stereo not drawn),,inconclusive: -31.5% [inhibitor]
COc1ccccc1-c1cc(C(=O)NCc2ccccc2)no1,,inconclusive: -30.8% [inhibitor]
Cc1ccccc1OC1=NS(=O)(=O)c2ccccc21,"inconclusive [inhibitor, single point]",
CC(=O)N/N=C/c1ccccc1OCCOc1cccc(C)c1,"inconclusive [inhibitor, single point]",
COCCNC(=O)CN1C(=O)NC2(CCCc3cc(OC)ccc32)C1=O (stereo not drawn),,inactive: 1.26%
CCNc1ncc2nc(-c3cc(F)cc(F)c3)c(=O)n(CCc3ccccc3)c2n1,"inconclusive [inhibitor, single point]",

SMILES,Potency,"activity change, negative = growth inhibition"
Cc1cc(C)c(Cn2c(C(O)c3ccccc3)nc3ccccc32)c(C)c1 (stereo not drawn),active: 9.2 µM,
CCCCC1CCC(C(=O)N(C)CC(=O)Nc2cccc(OC)c2)CC1 (stereo not drawn),"inconclusive [inhibitor, single point]",
CN(C)c1nc(NCc2ccccc2)nc(SCC(=O)Nc2ccccc2)n1,"inconclusive [inhibitor, single point]",
CC(=O)n1cc([C@H]2C=C(C(=O)NCc3ccccc3)O[C@@H](OCc3ccc(CO)cc3)C2)c2ccccc21,active: 3.26 µM,
CCOc1cc(/C=N/NC(=O)c2ccc(NC(=O)C3CC3)cc2)ccc1O,,inactive: -17.6%
Cc1nc(-c2ccc3c(c2)OCO3)cs1,,inactive: -8.9%
Cc1ccc(S(=O)(=O)N2C(=O)C(c3ccccc3)SC2=Nc2ccccc2)cc1 (stereo not drawn),"inconclusive [inhibitor, partial curve]",
O=C(N=Nc1c(O)[nH]c2ccccc12)c1ccc2c(c1)OCO2,"inconclusive [inhibitor, partial curve, poor fit]",
CCCOc1cc(CN2CCCCC2)cc(C(C)=O)c1,,inactive: 5.2%
CCN(CCn1cccn1)C(=O)c1cc(COc2cc(C)ccc2C)on1,"inconclusive [inhibitor, single point]",
CC(Oc1cccc(Cl)c1)C(=O)NCc1ccc(S(N)(=O)=O)cc1 (stereo not drawn),active: 25.9 µM,
Cc1ccc(NC(=O)CC2CCCC2)c(Br)c1,,inactive: 1.94%
Cc1ccc(NC(=O)CN(c2cc(C)cc(C)c2)S(=O)(=O)c2c(C)noc2C)nc1,"inconclusive [inhibitor, single point]",
CCc1ccccc1Nc1nn2c(=O)c3ccc(C(=O)NC4CCCCC4)cc3nc2s1,active: 13 µM,
COc1cc(C)c(CN2CCN(c3ncccn3)CC2)cc1C,"inconclusive [inhibitor, partial curve, poor fit]",
N#CCSc1nc2ccccc2c(=O)n1CC1CCCC1,"inconclusive [inhibitor, single point]",
CCOc1ccc(NC(=O)CC2C(=O)N(CC)C(=S)N2CCN2CCOCC2)cc1 (stereo not drawn),"inconclusive [inhibitor, single point]",
CCCCNC(=O)c1cn(C)c2ccc(S(=O)(=O)N3CC(C)CC(C)C3)cc2c1=O (stereo not drawn),,inactive: 11%
COc1ccc(OCCn2c(=O)sc3ccccc32)cc1,"inconclusive [inhibitor, single point]",
CCn1cc(C(=O)OCC(=O)Nc2ccc(S(=O)(=O)N3CCCC3)cc2)c(=O)c2ccc(C)nc21,"inconclusive [inhibitor, single point]",
Cc1ccc(S(=O)(=O)NC(=O)C2(C)CCN2C(=O)CC2CCCC2)nc1 (stereo not drawn),,inactive: -7.37%
CCN(CC(=O)Nc1c(F)cccc1F)C(=O)CCCN1C(=O)c2ccccc2C1=O,"inconclusive [inhibitor, single point]",
Cc1ccc(Cl)cc1N1CCN(Cc2nc3ccsc3c(=O)[nH]2)CC1,"inconclusive [inhibitor, single point]",
Cc1ccc2nc(Cl)c3cc(C(=O)N(CCN(C)C)Cc4ccco4)sc3c2c1,"inconclusive [inhibitor, partial curve, poor fit]",
COc1ccccc1OCC(O)CN1CCN(CC(=O)Nc2c(C)cccc2C)CC1 (stereo not drawn),"inconclusive [inhibitor, partial curve]",

SMILES,Potency,"activity change, negative = growth inhibition"
O=[N+]([O-])c1ccc(/C=C/c2nc3ccc([N+](=O)[O-])cc3[nH]2)cc1,active: 4.11 µM,
Cc1ccc(CN2C(=O)C3CCCN3c3ncccc32)cc1 (stereo not drawn),"inconclusive [inhibitor, single point]",
CCOC(=O)c1c(N)n(-c2cccc(C)c2C)c2nc3ccccc3nc12,,inactive: 4.77%
Cc1cccc(/N=C/c2sc3ccccc3c2O)n1,"inconclusive [inhibitor, full curve]",
COc1ccc(N(C(=O)C(C)C)S(=O)(=O)c2cccc([N+](=O)[O-])c2)cc1,"inconclusive [inhibitor, partial curve]",
Oc1ccc(C=NC2CCCCC2)c(O)c1,,inactive: -12%
O=C(CN1CCN(c2ccc(F)cc2)CC1)c1cccs1,,inconclusive: -35.8% [inhibitor]
COc1ccc(C(=O)CSc2ccc(-c3ccccc3)nn2)cc1,"inconclusive [inhibitor, single point]",
CCOc1ccc(CCN2C(=O)C(=O)N([C@@H](Cc3ccccc3)CN3CCC[C@H]3CN3C(=O)C(=O)NC[C@@H]3Cc3ccccc3)C[C@@H]2CC(C)C)cc1,active: 18.4 µM,
CC(=O)NC(CC(=O)Nc1ccc(S(=O)(=O)Nc2nccs2)cc1)c1ccccc1 (stereo not drawn),,inactive: -23%
COC(=O)C(CCSC)NC(=O)c1cc2c(n(-c3ccc(OC)cc3)c1=O)CC(C)(C)CC2=O (stereo not drawn),,inactive: -16.4%
CC(=O)N1CCN(C(=O)CNc2cc(C(F)(F)F)ccc2OCC(F)(F)F)CC1,,inactive: -11.5%
COc1ccc(CC(=O)NNc2ncnc3c2cnn3-c2ccc(C)cc2)cc1,,inactive: -27.7%
CNC[C@H](NC[C@@H](NCCCc1ccccc1)c1ccccc1)[C@H](C)O,"inconclusive [inhibitor, single point]",
O=S(=O)(Nc1ccccc1)c1ccc(Oc2ncc(C(F)(F)F)cc2Cl)cc1,"inconclusive [inhibitor, single point]",
Cc1ccc(S(=O)(=O)N2CCN(C(=O)CSC3CCCC3)CC2)c(C)c1,,inactive: -15%
CC(=O)Nc1ccc2c(c1)n(C)c(=O)n2C,,inactive: -3.37%
CCOC(=O)C1(C)CCCN(C(=O)c2cccs2)C1 (stereo not drawn),,inactive: 9.28%
COc1cccc2c1Oc1ncccc1N(c1ccc(C(=O)NCc3cccc(C)c3)s1)C2,"inconclusive [inhibitor, single point]",
CCOc1cc(C)c(S(=O)(=O)N2CCCC2)cc1C,"inconclusive [inhibitor, partial curve]",
CCNc1nc(-c2sc(NC(=O)C(C)(C)C)nc2C)c(-n2cc(-c3ccccc3)nn2)s1,active: 7.31 µM,
COc1ccc(S(=O)(=O)Nc2cccc(-c3ccc(N4CCCCCC4)nn3)c2)c(OC)c1,active: 29.1 µM,
Nc1nnnn1NCc1cccc(OCc2ccccc2)c1,"inconclusive [inhibitor, partial curve]",
